# Results are given in words; binding and its absence hold for the method and conditions named. Binding seen in cells or lysates may run through a third protein. Some binding calls cover weakened binding; strength is not graded here. For some assays here: Where a sequence is shown, tags or fusion partners need not be part of it.
# Legend:
# [1] = biological target: GST-tagged Hsp90ab1 fragment (1–263/610–724a) (human) (UniProt P08238); experiment: pull-down; GST fusion protein on GSH beads incubated with lysates of HEK293T cells (transfected with Flag-LRP5) at 4 °C for 4 h; washed; Western blot; only the target purified
# [2] = biological target: GST-tagged Hsp90ab1 fragment (264–609a) (human) (UniProt P08238); experiment: as above
# [3] = biological target: low-density lipoprotein receptor-related protein 5 (human (endogenous in BGC823 and MKN45)) (UniProt O75197); experiment: co-IP; endogenous proteins from pre-cleared BGC823 and MKN45 lysates; primary antibody and protein A/G beads overnight at 4 °C, washed with PBS; Western blot; both directions
# [4] = biological target: T1, GST-pET-41a(+)-LRP5 (1409–1615a) (UniProt O75197); experiment: pull-down; GST fusion protein on GSH beads incubated with lysates of HEK293T cells (transfected with Flag-LRP5) at 4 °C for 4 h; washed; Western blot; only the target purified
# T1 sequence: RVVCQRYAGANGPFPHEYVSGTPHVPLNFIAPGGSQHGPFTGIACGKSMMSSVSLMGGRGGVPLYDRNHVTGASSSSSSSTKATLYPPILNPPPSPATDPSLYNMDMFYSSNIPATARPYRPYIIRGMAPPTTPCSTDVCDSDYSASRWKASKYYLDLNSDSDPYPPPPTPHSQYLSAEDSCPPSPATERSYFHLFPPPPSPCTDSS
# [5] = biological target: Hsp90ab1 (human (endogenous in BGC823 and MKN45)) (UniProt P08238); experiment: co-IP; endogenous proteins from pre-cleared BGC823 and MKN45 lysates; primary antibody and protein A/G beads overnight at 4 °C, washed with PBS; Western blot; both directions
substance,measurement,setting,value
Flag-LRP5 (from UniProt O75197 32-1615) (receptor),binding,[1],no binding
same,binding,[2],binds
Hsp90ab1 (from UniProt P08238 1-724),binding,[3],binds
Hsp90ab1 (prey of the GST-LRP5 fragment pull-down) (from UniProt P08238 1-724),binding,[4],binds
low-density lipoprotein receptor-related protein 5 (from UniProt O75197 32-1615),binding,[5],binds

# From paper PMC6372478
